Assay results taken from the RNAGym collection of RNA variant scans (doi:10.7554/elife.90254).
Read counts are not given, so values of variants with three or more changes are uncertain.

B1: LINE1-mini (parent)
chain: GGCAGAGCUCAACACAGCGUGGCAAAGUGGCUGUGGCUAGACUGCC

Variants of: B1
Assay: self-cleavage, relative activity (ratio to wild type); higher = more cleavage; in vitro, sequencing; the parent is a self-cleaving ribozyme

Variant | self-cleavage
GGGAGAGCUCAACACAGCGUGGCAAAGUGACUGUGGCUAGCCUGCC [C3G G30A A41C] | 0.14
GGGAGAGCUCAACACAGCGUGGCAAAGUAGCUUUGGCUAGACUGCC [C3G G29A G33U] | 0.06
GGGAGAGCUCAACACAGCGUGUCAAAGUGGCUGUGGCUAGUCUGCC [C3G G22U A41U] | 0.48
GGGAGAGCUCAACACAGCGUGUCAAAGUGACUGUGGCUAUACUGCC [C3G G22U G30A G40U] | 0.09
GGGAGAGCUCAACACAGCGUGGCAAAGUGAAUGUGGCUGGACUGCC [C3G G30A C31A A39G] | 0.03
GGGAGAGCUCAACACAGCGUGGCAAAGUAGCUGUGGCUAAACUGCC [C3G G29A G40A] | 0.04
GGGAGAGCUCAACACAGCGUGGCAAAAUGGCUGUGGCAAGACUGCC [C3G G27A U38A] | 0.56
GGGAGAGCCCAACAAUGCUUGGCAAAGUGGCUGUGGCUAGACUGCC [C3G U9C C15A A16U G19U] | 0.03
GGGAGAGCUCAACACAGCGUGGCAAAGUGUCUGUGUCUAGACUGCC [C3G G30U G36U] | 0.62
GGGAGAGCUCAACACAGCGUGGCAAAGUGGCUGUGUCUAGAGUGCC [C3G G36U C42G] | 0.01
GGGAGAGCACAACACAGCGUGGCAAAGUAGGUGUGGCUAGACUGCC [C3G U9A G29A C31G] | 0.11
GGGAGAGCUCAACACAGCGUGGCAAACUGGCUGUGGCUAGACUCCC [C3G G27C G44C] | 0.91
GGGAGAGCACAACACGGCGUGGCAAAGUGGCUGUGGCUAGACUGCC [C3G U9A A16G] | 1.54
GGGAGAGCUCAACACAGCGUGGCAAAGUGAUUGUGGCUAGACUGCC [C3G G30A C31U] | 0.05
GGGAGAGCUCAACACAGCGUGGCAAAAGGGCUGUCGCUAGUCUGAC [C3G G27A U28G G35C A41U C45A] | 0
GGGAGAGCUCAACACAGCGUGGCAAAGUGGCUAUGGCUAAACUGCC [C3G G33A G40A] | 0.07
GGGAGAGCUCAACACAGCGUGGCAAAGUGGCUGUGACUAGUCUGCC [C3G G36A A41U] | 0.18
GGGAGAGCUCAACACAGCGUGAUAAAGUGGGGGUGGUUAGACUGCC [C3G G22A C23U C31G U32G C37U] | 0.04
GGGAGAGCAAAACACAGCGUGGUAAAGUGGUUGUGGCUAGAAUUUC [C3G U9A C10A C23U C31U C42A G44U C45U] | 0.03

Variant | self-cleavage
GGGAGAGCUCAACACAGCGUGGCAAAGUGGCUGUGGCUAAUCUGCC [C3G G40A A41U] | 0.32
GGGAGAGCUCAACACAGCGUGGCAAACGGUCUUUGGCUAGACUGCC [C3G G27C U28G G30U G33U] | 0.1
GGGAGAGCUCAACACAGCGUGGCAAAGUGACUGUGGCUAAACUGCC [C3G G30A G40A] | 0.18
GGGAGAGCUCAACACAGCGUGGCAAAGUUGAUGUGGCUAGACUGCC [C3G G29U C31A] | 0.02
GGGAGAGCUCAACACAGCGUGGCAAAGUGGCUGUCGCUAGGCUGCC [C3G G35C A41G] | 0.11
GGGAGAGCUCAACACAGCGUGACAAAGUGGCUGUGGCUAAACUGCC [C3G G22A G40A] | 0.3
GGGAGAGCUCAACACAGCGUGGCAAAAUGGCUGUGGCAAGACUGAC [C3G G27A U38A C45A] | 0.02
GGGAGAGCACAACACAGCGUGGCAAAGUGGCUGUGGCUAUACUGCC [C3G U9A G40U] | 0.04
GGGAGAGCACAACACAGCGUGGCAAAGUGGCUGUGGCUAGACAGCC [C3G U9A U43A] | 0.15
GGGAGAGCUCAACACAGCGUGGCAAAUUGGCUGUGGCUAGACUACA [C3G G27U G44A C46A] | 0.09
GGGAGAGCACAACACAGCGUGGCAAGGUGACUGUGGCUAGACUUCC [C3G U9A A26G G30A G44U] | 0.16
GGGAGAGCUCAACACAGCGUGGCAAACCGGCUGUGGCUAGCCUGCC [C3G G27C U28C A41C] | 0.04
GGGAGAGCCCAACACAACGAGGCAAAGGGCUUGUGGCUCGACUGCC [C3G U9C G17A U20A U28G G30C C31U A39C] | 0.02
GGGAGAGCACAACACAGCGUGGGAAAGUGGCUGUGGCUAGAUUGUC [C3G U9A C23G C42U C45U] | 0.08
GGGAGAGCUCAACACAGCGUGUCAAAGUGGCUGUGGCUAGACUCCC [C3G G22U G44C] | 1.84
GGGAGAGCUCAACACAGCGUGGCAAAGUGGCUGUUCCUAGACUGCC [C3G G35U G36C] | 0.06
GGGAGAGCUCAACACAGCGUGGCAAACUGGAUGUGGCUAUACUGCC [C3G G27C C31A G40U] | 0.05
GGGAGAGCUCAACACAGCGUGUCAAAGUGGCUGUGGCUAGACAGCC [C3G G22U U43A] | 0.1
GGGAGAGCCGAAGACAACGUGGCAAAGUGGCUGUGGCUAGACUGCC [C3G U9C C10G C13G G17A] | 0.02

Variant | self-cleavage
GGGAGAGCUCAACACAGCGUGGCAAAGUGUCUGUGGCUAGACUGGC [C3G G30U C45G] | 0.19
GGGAGAGCUCAACACAGCGUGGCAAAGUUGCUGUGGCAAGACCACC [C3G G29U U38A U43C G44A] | 0.18
GGGAGAGCUCAACACAGCGUGACAAAGUGGCUGUGGCUAAACCGCC [C3G G22A G40A U43C] | 0.03
GGGAGAGCUCAACACAGCGUGGCAAAGUGUCUGUGGCUAGACUUCC [C3G G30U G44U] | 1.25
GGGAGAGCUCAACACAGCGUGGCAAACUGGCUGUGGAUAGAAUGUC [C3G G27C C37A C42A C45U] | 0.01
GGGAGAGCUCAACACAGCGUGGCAAAGUGGCUUUGGCUAGACUGCG [C3G G33U C46G] | 0.04
GGGAGAGCUCAACACAGCGUGGCAAAGUGGCUGUGGCUAGACUACG [C3G G44A C46G] | 0.14
GGGAGAGCUCAACACAGCGUGGCAAAUUGGCUGUGGGUAGACUGCC [C3G G27U C37G] | 0.09
GGGAGAGCUCAACACAGCGUGGCAAAUUGGCUCUGGCUAGACUGCC [C3G G27U G33C] | 0.04
GGGAGAGCUCAACACAGCGUGGCAAAGUUGCUGUGUCUAGACUGCC [C3G G29U G36U] | 0.28
GGGAGAGCUCAACACAGCGUGGCAAAAUGGCGGUGGCUAGUCUUCC [C3G G27A U32G A41U G44U] | 0.13
GGGAGAGCACAAAACAGCGUGGCAAAGUGGCUGCGGUUAGACUGCC [C3G U9A C13A U34C C37U] | 0.21
GGGAGAGCACAACUCAGCGAGGCAAAGUGACUGUGCCUAGACUGCC [C3G U9A A14U U20A G30A G36C] | 0.04
GGGAGAGCUCAACACAGCGUGGCAAAGUGGCUGUCGCUAUACUCCC [C3G G35C G40U G44C] | 0.09
GGGAGAGCUCAACACAGCGUGACAAAGUCGCUGUGACUAGACUGCC [C3G G22A G29C G36A] | 0.14
GGGAGAGCUCAACACAGCGUGGCAAAGUGGCUGUCGCGGGAAUUCC [C3G G35C U38G A39G C42A G44U] | 0.02
GGGAGAGCUCAACACAGCGUGGCAAAGUUGCUGUGUUUAGACUGCC [C3G G29U G36U C37U] | 0.03
GGGAGAGCUCAACACAGCGUGGCAAAGUGGCUCUGGCUAGCCUGCC [C3G G33C A41C] | 0.02
